According to paper PMC7177742, “Zinc Differentially Modulates the Assembly of Soluble and Polymerized Vimentin” (International Journal of Molecular Sciences, 2020):

B1: Human vimentin C328S (natural protein)
chain: not shown
notes: vimentin, human, with the single cysteine C328 changed to serine; also called C328S mutant; cysteine to serine mutant; source: E. coli, purified by established protocols; obtained from Biomedal S.L. (Spain)

How the values were obtained:
[1] = molecular target: the molecule itself; assay: electron microscopy (negative stain); soluble vimentin 0.2 mg/mL in 5 mM PIPES-Na pH 7.0, 0.1 mM DTT, with 10 or 100 uM ZnCl2 1 h at r.t., fixed with glutaraldehyde; lateral association of oligomers into fibrils
Human vimentin C328S = molecular target: B1; assay: fluorescence polarisation; fluorescence anisotropy: 1 uM unlabeled vimentin with 50 nM Alexa 488-labeled vimentin as tracer, increasing ZnCl2, 26 C, 96 well black microplate; details: both partners purified

binding result (Human vimentin C328S) | Binder | binding result [1]
 | B1 | binds
binds | Alexa 488-labeled vimentin C328S (natural protein, Alexa Fluor 488 on amino groups, 0.2 to 0.9 moles of fluorophore per mole of protein, vimentin, human, C328S, as m2, covalently labeled in the amino groups; Used as a tracer (50 nM) with 1 uM unlabeled vimentin C328S; source: E. coli, purified; obtained from Biomedal S.L. (Spain); labeled with Alexa Fluor 488 carboxylic acid succinimidyl ester, free dye removed by gel filtration) not shown | 
